Experimental data published in article PMC4336329 (PLoS ONE, 2015).
The campaign covered roughly 310,000 compounds. About 2,200 (0.71%) showed an effect of 50% or more. Effects have a minus sign here. This is one part of the list.

Target: human ether-à-go-go-related gene (hERG) potassium channel (human, UniProt Q12809)
Assay: primary screen, population patch clamp on CHO cells stably expressing hERG

Sequence of human ether-à-go-go-related gene (hERG) potassium channel (Q12809 whole entry, looked up): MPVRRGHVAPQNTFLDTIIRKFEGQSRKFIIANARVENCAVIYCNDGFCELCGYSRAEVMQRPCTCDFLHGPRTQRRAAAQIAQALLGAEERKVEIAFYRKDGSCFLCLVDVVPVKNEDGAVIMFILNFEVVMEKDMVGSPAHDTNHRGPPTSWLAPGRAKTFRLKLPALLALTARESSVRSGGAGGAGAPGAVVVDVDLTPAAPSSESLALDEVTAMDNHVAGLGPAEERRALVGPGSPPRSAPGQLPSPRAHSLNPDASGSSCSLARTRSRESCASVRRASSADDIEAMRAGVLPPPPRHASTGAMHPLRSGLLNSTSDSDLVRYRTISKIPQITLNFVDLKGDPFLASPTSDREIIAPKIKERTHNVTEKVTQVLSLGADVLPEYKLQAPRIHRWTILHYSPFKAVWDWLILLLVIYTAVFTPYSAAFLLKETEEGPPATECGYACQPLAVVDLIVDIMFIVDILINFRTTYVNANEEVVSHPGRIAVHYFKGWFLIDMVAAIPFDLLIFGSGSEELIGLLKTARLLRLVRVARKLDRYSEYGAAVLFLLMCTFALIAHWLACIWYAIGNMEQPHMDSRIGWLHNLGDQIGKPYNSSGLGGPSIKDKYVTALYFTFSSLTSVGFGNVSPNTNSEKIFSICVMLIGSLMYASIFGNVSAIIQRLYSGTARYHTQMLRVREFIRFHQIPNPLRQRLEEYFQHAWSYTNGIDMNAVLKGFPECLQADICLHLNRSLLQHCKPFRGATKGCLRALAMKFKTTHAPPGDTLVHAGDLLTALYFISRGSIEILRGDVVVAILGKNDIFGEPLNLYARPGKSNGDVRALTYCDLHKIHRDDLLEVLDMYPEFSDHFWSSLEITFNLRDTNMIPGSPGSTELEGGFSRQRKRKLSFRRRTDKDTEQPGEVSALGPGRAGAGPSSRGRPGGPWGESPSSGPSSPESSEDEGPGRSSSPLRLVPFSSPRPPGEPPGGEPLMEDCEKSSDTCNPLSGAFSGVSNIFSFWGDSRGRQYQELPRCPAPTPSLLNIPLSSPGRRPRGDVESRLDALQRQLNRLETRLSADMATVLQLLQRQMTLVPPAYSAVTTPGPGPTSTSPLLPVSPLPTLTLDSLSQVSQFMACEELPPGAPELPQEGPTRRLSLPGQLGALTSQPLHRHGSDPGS

SMILES | hERG current change (%, negative = inhibition) at 1uM [%]
CCN(CC)CCN1C(=O)C(=O)/C(=C(/O)c2ccc(OC(C)C)cc2)C1c1cccs1 (centres unmarked) | 11.6
O=C(COC(=O)[C@@H]1CC(O)CN1S(=O)(=O)c1ccc2c(c1)OCCO2)Nc1ccccc1F (some centres unmarked) | 15.5
CCOC(=O)c1[nH]c2c(c1C)C(=O)CC(c1ccc(OCC)c(OC)c1)C2 (centres unmarked) | -5.85
CN(C)S(=O)(=O)c1ccc(N2CCCC2)c(C(=O)N2CCC(C(N)=O)CC2)c1 | 15.8
COC(=O)[C@H](CCSC)NC(=O)N1CCN(Cc2ccccc2)CC1 | 5.58
CCCc1nc2ccccc2c2nc(N)nn12 | 9.02
O=C(c1ccccc1)N1CCN(C(=O)c2nn3c(C(F)(F)F)cc(-c4ccccc4)nc3c2Br)CC1 | 17.3
Cn1nc(C(=O)NCCCN2CCCCC2)c2c1-c1ccccc1SC2 | -24.8
CC1CCCN(S(=O)(=O)c2ccc(S(=O)(=O)N3CCC4(CC3)OCCO4)cc2)C1 (centres unmarked) | 7.23
COC(=O)C(Cc1ccccc1)NC(=O)CCNC(=O)c1ccc(Br)cc1 (centres unmarked) | -28.3
CS(=O)(=O)N1CCc2cc(C(=O)O)ccc21 | 10.8
N#CC1(NC(=O)CN2C(=O)NC(c3ccccc3)(c3ccccc3)C2=O)CCCC1 | -23.3
Cc1ccc(N(C(=O)CNC(=O)c2ccco2)C(C(=O)NC2CCCC2)c2ccncc2)cc1C (centres unmarked) | 9.64
CCn1c(SCC(=O)NNC(=O)Cc2ccccc2)nnc1-c1ccncc1 | 9.9
COC(=O)CSc1nc2ccc(C)cc2cc1C#N | 13.6
CC(=O)N1CCN(C(=O)COC(=O)c2oc3ccccc3c2C)CC1 | 13.8
O=C(N(c1ccccc1)c1ccccc1)N(c1ccccc1)c1ccccc1 | 0.814
O=C(CCSc1nnc2scc(-c3ccccc3)n12)NCc1ccc2c(c1)OCO2 | 6.52
O=C(O)COc1ccccc1/C=N/NC(=O)c1cccc(S(=O)(=O)Nc2cccc(Cl)c2)c1 | 15.6
COC(=O)C1=NNC2(c3ccc(C)cc3)C(=O)N(c3ccc(C)cc3)C(=O)C12 (centres unmarked) | 13.2
O=C(Nc1c(C(=O)O)oc2ccc(Br)cc12)c1ccccc1 | 2.62
COc1ccc(NC(c2ccccc2)P(=O)(Oc2ccccc2)Oc2ccccc2)cc1 (centres unmarked) | 5.63

SMILES | hERG current change (%, negative = inhibition) at 1uM [%]
CCC1CCC2(CC1)NNC(=S)NN2 | 1.69
CCOc1nc(-c2ccccc2)ccc1-c1noc(COc2ccccc2)n1 | -11.8
CC1C(c2ccccc2)N(C)CCC12NC(=O)NC2=O (centres unmarked) | 2.73
C=CCn1c(-c2ccccc2)c[nH]c1=S | 9.5
Cc1cccc(C(=O)OCC(=O)Nc2ccc(F)cc2)c1 | 15.1
COc1nc(Nc2ccccc2)nc(OC)n1 | 13.6
Clc1ccc(-n2cccc2CN2CCc3c([nH]c4ccccc34)C2c2ccccn2)nc1 (centres unmarked) | -2.31
Cc1ccc(S(=O)(=O)N(C#N)c2nc(C)cc(C)n2)cc1 | 2.28
Cn1c(=O)c2c(ncn2CCC(=O)N/N=C/c2ccccc2)n(C)c1=O | 8.18
C=CCNC(=O)N1CCc2[nH]c3ccc(F)cc3c2C1 | 13.4
O=C(OCc1ccc([N+](=O)[O-])cc1)c1cc([N+](=O)[O-])ccc1N1CCOCC1 | -67.2
CC(C)(C)C(=O)O/N=C(\N)c1c(Cl)cccc1Cl | 7.42
O=C(CSc1nnc(Cc2cc(=O)[nH]c(=O)[nH]2)n1-c1ccccc1)N1CCCCC1 | 15.3
O=S(=O)(c1ccc(F)cc1)N1CCN(C(=S)NC2CC2)CC1 | 6.29
Fc1ccccc1-c1nc2ccccc2[nH]1 | 19.9
C[C@@H]1C(=O)O[C@H]2CC34[C@H]5C[C@@H](C(C)(C)C)[C@]36[C@@H](OC(=O)[C@@H]6O)O[C@@]4(C(=O)O5)[C@]21O (some centres unmarked) | 9.2
CCOC(=O)CC1CCCCN1C(=O)c1cc(COc2cccc3cnccc23)on1 (centres unmarked) | 10.1
COc1ccc2sc(N3C(=O)C4CC=C(C)CC4C3=O)nc2c1 (centres unmarked) | -0.875
Cc1ccc(OCC(=O)NNC(=O)C2CCN(c3nccc(C)n3)CC2)cc1 | -0.0861
O=C(O)c1cc2nccc(-c3ccc(F)cc3)n2n1 | 19.4
Cc1cc(C)n2cc(CSc3nnc(N)s3)nc2n1 | 3.93
O=c1cc(N2CCC3(CC2)OCCO3)[nH]c(=O)n1C1CCCCC1 | 12.3
